PubChem BioAssay AID760 (NMMLSC, 2007)
Among all 190,000 compounds or so, about 360 (0.19%) were called active. The shares of active, inactive and inconclusive entries below differ from those in the screen.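 How the source made its calls: active means GTP binding activity at least 20 points away from 100%, either lowered or raised; inconclusive means signal likely due to the compound's own green fluorescence; inactive means the rest.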

These molecules were tested against Ras-related protein Rab-2A (Canis lupus familiaris) (UniProt P61105) (assay: Rab2 wt fluorescent GTP binding changes, either direction – biochemical, dog, bead-based flow cytometry, multiplex, primary screen (AID 760;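 further: 0% = beads with excess unlabeled GTP and 100% = no-compound control corrected for plate trend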)). Conditions: GST-Rab2 wt beads, Bodipy-GTP binding, at 10 µM.

GTP binding activity, active:
CC(C)CCNC(=O)Cc1ccc(Nc2nc(=S)[nH]c3ccccc23)cc1 75%, COc1cc(N=c2oc3c(C)ncc(CO)c3cc2C(N)=O)cc(OC)c1OC 67%, CCn1c2ccccc2c2nnc(SCC(=O)NCCOC)nc21 35%, CC1CN(C(=O)c2cccc(S(=O)(=O)Nc3cc(Cl)ccc3Cl)c2)CC(C)O1 (stereo unspecified) 78%, O=S(=O)(CC(CN1CCOCC1)N1CCOCC1)c1ccccc1 (stereo unspecified) 55%, Cc1ccc(OCCn2cnc3cc([N+](=O)[O-])ccc3c2=O)cc1 79%

GTP binding activity, inactive:
COc1ccc(CN2CCCC(CNC(=O)c3ccc(F)cc3)C2)c(C)c1C (stereo unspecified) 98%, O=C(Cn1nnc2ccccc2c1=O)N1CCOCC1 97%, COc1ccc(N(C(=O)CNC(=O)c2cccs2)C(C(=O)NCC2CCCO2)c2ccccc2)cc1OC (stereo unspecified) 102%, COc1ccc(C(=O)NCC(=O)OCC(=O)N2CCc3ccccc32)cc1 93%, Cc1sc2nc(-c3ccccc3)oc(=O)c2c1C 95%, Cc1nc(C(=O)N(C)C)nn1-c1ccc(Cl)cc1Cl 100%, CC1=CCC[C@@H]2[C@@](C)(CC/C(C)=C/C(=O)O)[C@H](C)CC[C@@]12C 101%, Cc1cc2nnc(SCC(=O)N3CCCCCC3)n2c(N)n1 99%, CC(/C=N\NC(=O)CN1CCN(S(=O)(=O)c2ccc(C)cc2)CC1)=C\c1ccccc1 100%, COC1=CCC2([N+](=O)[O-])CN(CCO)CC1([N+](=O)[O-])C2 (stereo unspecified) 100%, C=CCN(c1ccccc1)S(=O)(=O)c1ccc2c(c1)oc(=O)n2C 99%, O=Nc1c(O)[nH]c2ccc(F)cc12 96%, O=C(CCc1nnc(-c2ccc3c(c2)OCO3)o1)N1CCC(c2ccc(F)cc2)C1 (stereo unspecified) 82%, CNC(=S)NNS(=O)(=O)c1ccc(OC)cc1OC 98%

GTP binding activity, inconclusive:
C=CCNc1oc(/C=C/c2ccccc2)nc1C#N 108%, CN(C)Cc1nc2ccccc2c(=O)n1CC(=O)Nc1cccc(S(=O)(=O)N2CCOCC2)c1 97%, COc1ccc(C(CC(=O)O)n2cnnn2)cc1 (stereo unspecified) 98%, O=C(Nc1ccc(Br)cc1F)C1CCCO1 (stereo unspecified) 98%, COc1cc(/C=N\NC(=O)c2ccc(Cn3nc([N+](=O)[O-])c(Cl)c3C)o2)ccc1O 50%, CCN1/C(=C/c2ccc3cc(C)ccc3[n+]2C)Sc2ccc3sccc3c21 60%, CC(=O)OCC1OC(n2ccc(=O)[nH]c2=O)C(O)C1O (stereo unspecified) 107%, CCc1cc2c(N3CCN(c4nnc(CC)s4)CC3)ncnc2s1 93%, Cc1cc([N+](=O)[O-])c2c(c1C)C1C=CCC1C(c1ccccn1)N2 (stereo unspecified) 88%, CCC(=O)Nc1ccc(C(=O)N/N=C/c2cc(Br)c(OC)cc2OC)cc1 95%, Cn1c(C(=O)NCCCN2CCN(c3cccc(Cl)c3)CC2)cc2c(=O)n(C)c3ccccc3c21 77%, Cc1nc2ccccc2n1CC(O)Cn1c2ccccc2c2ccccc21 (stereo unspecified) 101%, CCOC(=O)c1cc(-c2cccc([N+](=O)[O-])c2)n[nH]1 94%, COc1c(C)cc(Br)cc1C(=O)Nc1cccc(NC(=O)c2ccco2)c1 102%, CCOc1cc(/C=C2/SC(=S)NC2=O)ccc1OC(=O)c1ccco1 77%, COCCn1c(SCC(=O)Nc2ccc(C)cc2C)nc2c(oc3ccccc32)c1=O 107%, COc1cccc(C(=O)N2CCSC2=S)c1 97%, O=S(=O)(NCc1ccco1)N1CCCCCC1 94%, CNCC(=O)Nc1c(C)n[nH]c1C 101%, CCOC(=O)CC(=O)CSc1ccc2nnc(-c3ccc(C)cc3)n2n1 107%, COC(=O)c1sccc1-c1ccc(C(N)=O)o1 92%, Cn1cc(C(=O)NC2CCCCC2)c(=O)c2cc(S(=O)(=O)N3CCCC3)ccc21 108%, CC(=O)c1cnc(-c2ccccn2)s1 93%, c1ccc(-n2nnnc2Sc2n[nH]c(-c3ccncc3)n2)cc1 92%, O=C(COc1cc(O)c2c(=O)cc(-c3ccccc3)oc2c1)c1ccc(F)cc1 99%, CCOc1cc2c(cc1/C=C1/NC(=O)N(CC(=O)OC)C1=O)OCO2 97%, O=c1c2nccnc2[nH]c(=S)n1Cc1ccccc1Cl 91%, C=CCNC(=O)c1ccccc1NC(=O)c1ccccc1SC 93%, O=C(Nc1nc2ccc(Cl)cc2s1)c1ccc(Br)o1 103%, O=[N+]([O-])c1ccc(N2CCN(S(=O)(=O)c3ccccc3)CC2)cc1NCC1CCCO1 (stereo unspecified) 102%, O=C(NCc1ccccc1)c1ccc2c(c1)C(=O)N(Cc1ccncc1)C2=O 106%, COc1cc(CNC2CCCC2)cc(Cl)c1OCc1ccccc1F 99%, CCCCNC(=O)NNC(=O)c1ccc(F)cc1 102%, COc1cccc(-c2nc3ccc(O)cc3c(=O)o2)c1 90%, O=c1ccc(NS(=O)(=O)c2ccccc2)cn1Cc1ccc(Cl)c(Cl)c1 105%, Cc1cccc(N2CCN(CCNC(=O)c3cc4c(s3)CS(=O)(=O)C4)CC2)c1C 102%, O=C(Cn1nc(-c2ccccc2)ccc1=O)NCC1CCCO1 (stereo unspecified) 87%, CCOC(=O)c1ccc(NC(=S)N(CCCN2CCCCCC2)Cc2ccco2)cc1 102%, Cc1nnc(SCC(=O)N2CCOCC2)c2ccccc12 60%, NNc1nc(-c2ccccc2)cs1 113%, O=C(COC(=O)c1ccc(Cl)nc1)Nc1ccccc1OC(F)F 97%
